Measured values from paper PMC4265154, “A reversible Renilla luciferase protein complementation assay for rapid identification of protein–protein interactions reveals the existence of an interaction network involved in xyloglucan biosynthesis in the plant Golgi apparatus” (Journal of Experimental Botany, 2014).
These are yes or no findings as the source states them, for the method shown. For part of these data: Binding seen in cells or lysates may run through a third protein. Sequences can lack the tags named with a protein.

Columns and labels:
[1] = biological target: GALACTURONO…7 (GAUT7) fused to hRluc fragment [F1] or [F2] (Arabidopsis thaliana) (UniProt Q9ZVI7); experiment: split reporter; Rluc-PCA: proteins with C-terminal hRluc[F1]-HA and hRluc[F2]-FLAG co-expressed with p19 in N. benthamiana leaves for 72 h (Agrobacterium OD600 0.2 each, p19 0.05); pooled leaf discs macerated in 0.5 M NaCl, 0.1 M potassium phosphate pH 7.4, 1 mM EDTA, 0.02% BSA, protease inhibitors; 10 uM coelenterazine-h, luminescence 30 s; compared with p19 alone
[2] = biological target: T1, ARABINAN …1 (ARAD1) fused to hRluc fragment [F1] or [F2] (Arabidopsis thaliana) (UniProt Q6DBG8); experiment: as above
T1 sequence: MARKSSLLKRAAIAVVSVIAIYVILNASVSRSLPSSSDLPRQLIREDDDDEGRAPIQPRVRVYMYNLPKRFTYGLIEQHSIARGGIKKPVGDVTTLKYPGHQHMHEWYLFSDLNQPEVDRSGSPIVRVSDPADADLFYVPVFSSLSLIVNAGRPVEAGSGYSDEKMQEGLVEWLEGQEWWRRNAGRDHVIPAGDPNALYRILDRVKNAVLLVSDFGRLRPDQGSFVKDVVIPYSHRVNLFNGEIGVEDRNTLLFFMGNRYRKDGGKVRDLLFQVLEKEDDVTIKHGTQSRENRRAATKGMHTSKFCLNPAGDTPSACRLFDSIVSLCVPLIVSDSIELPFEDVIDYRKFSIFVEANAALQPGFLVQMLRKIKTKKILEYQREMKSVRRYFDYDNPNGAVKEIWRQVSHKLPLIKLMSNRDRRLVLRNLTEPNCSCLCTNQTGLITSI

[3] = biological target: T2, IRREGULAR XYLEM9 (IRX9) fused to hRluc fragment [F1] or [F2] (Arabidopsis thaliana) (UniProt Q9ZQC6); experiment: as above
T2 sequence: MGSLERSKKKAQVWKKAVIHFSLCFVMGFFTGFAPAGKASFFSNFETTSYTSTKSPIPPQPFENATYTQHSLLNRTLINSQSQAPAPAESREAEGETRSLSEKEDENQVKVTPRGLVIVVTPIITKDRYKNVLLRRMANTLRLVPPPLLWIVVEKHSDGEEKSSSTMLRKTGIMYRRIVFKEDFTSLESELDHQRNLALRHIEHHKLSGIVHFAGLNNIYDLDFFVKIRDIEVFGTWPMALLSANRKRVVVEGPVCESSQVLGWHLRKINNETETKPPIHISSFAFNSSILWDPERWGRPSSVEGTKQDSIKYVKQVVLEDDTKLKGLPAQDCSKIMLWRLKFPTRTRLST

[4] = biological target: T3, XXT2 fused to TF–Cub or NubG (split-ubiquitin assay) (Arabidopsis thaliana) (UniProt O22775); experiment: two-hybrid; split-ubiquitin assay (DUALmembrane) in yeast NMY51: TF–Cub (bait) and NubG (prey) at the N-termini; growth on SD-His-Leu-Trp-Ade scored as interaction, X-gal overlay for β-galactosidase
T3 sequence: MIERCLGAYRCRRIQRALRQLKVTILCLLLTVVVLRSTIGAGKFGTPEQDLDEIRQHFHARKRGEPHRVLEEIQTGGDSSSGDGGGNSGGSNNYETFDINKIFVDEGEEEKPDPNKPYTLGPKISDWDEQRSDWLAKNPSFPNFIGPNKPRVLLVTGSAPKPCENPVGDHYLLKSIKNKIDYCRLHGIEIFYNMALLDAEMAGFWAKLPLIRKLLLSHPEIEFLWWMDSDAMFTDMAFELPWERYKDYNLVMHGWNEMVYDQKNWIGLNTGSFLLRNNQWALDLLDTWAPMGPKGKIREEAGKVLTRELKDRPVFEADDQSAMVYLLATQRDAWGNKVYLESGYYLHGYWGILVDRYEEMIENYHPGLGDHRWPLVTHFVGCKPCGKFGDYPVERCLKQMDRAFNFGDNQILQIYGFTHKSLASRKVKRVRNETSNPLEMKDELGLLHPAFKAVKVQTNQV

[5] = biological target: T4, MUR3 fused to TF–Cub or NubG (split-ubiquitin assay) (Arabidopsis thaliana) (UniProt Q7XJ98); experiment: as above
T4 sequence: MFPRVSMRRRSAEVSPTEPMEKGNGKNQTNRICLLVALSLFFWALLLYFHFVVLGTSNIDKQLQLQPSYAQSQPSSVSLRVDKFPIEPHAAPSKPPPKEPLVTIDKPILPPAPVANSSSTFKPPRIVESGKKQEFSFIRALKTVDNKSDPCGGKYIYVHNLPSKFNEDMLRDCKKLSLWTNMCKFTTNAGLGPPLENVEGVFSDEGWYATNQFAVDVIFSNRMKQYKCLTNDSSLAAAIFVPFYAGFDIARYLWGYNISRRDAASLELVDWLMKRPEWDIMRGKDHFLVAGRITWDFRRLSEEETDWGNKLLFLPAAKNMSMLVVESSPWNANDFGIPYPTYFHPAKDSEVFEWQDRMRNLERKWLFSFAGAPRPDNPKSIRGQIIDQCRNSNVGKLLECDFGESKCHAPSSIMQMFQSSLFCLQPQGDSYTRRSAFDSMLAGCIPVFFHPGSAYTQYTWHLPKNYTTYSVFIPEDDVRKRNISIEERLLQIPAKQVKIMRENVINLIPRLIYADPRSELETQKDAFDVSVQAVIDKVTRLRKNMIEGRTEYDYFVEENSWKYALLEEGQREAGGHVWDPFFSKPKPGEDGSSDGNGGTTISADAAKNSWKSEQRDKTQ

[6] = biological target: T5, FUT1 fused to TF–Cub or NubG (split-ubiquitin assay) (Arabidopsis thaliana) (UniProt Q9SWH5); experiment: as above
T5 sequence: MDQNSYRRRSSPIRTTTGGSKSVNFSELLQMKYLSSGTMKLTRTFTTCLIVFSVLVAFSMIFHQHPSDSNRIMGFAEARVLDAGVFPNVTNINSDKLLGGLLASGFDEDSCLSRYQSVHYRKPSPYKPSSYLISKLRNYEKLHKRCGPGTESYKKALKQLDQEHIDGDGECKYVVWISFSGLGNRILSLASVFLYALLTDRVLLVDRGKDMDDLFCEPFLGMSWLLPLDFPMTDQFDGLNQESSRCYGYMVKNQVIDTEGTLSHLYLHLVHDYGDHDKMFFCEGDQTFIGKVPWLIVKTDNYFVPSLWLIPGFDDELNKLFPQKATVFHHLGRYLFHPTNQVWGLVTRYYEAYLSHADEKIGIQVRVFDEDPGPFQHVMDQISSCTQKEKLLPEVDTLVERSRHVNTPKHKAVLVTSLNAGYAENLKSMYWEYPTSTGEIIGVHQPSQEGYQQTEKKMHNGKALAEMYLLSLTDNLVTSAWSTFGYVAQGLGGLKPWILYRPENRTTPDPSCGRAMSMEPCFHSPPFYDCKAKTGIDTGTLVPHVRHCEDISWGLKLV

Measured: binding

B1: GALACTURONOSYLTRANSFERASE7 (GAUT7) fused to hRluc fragment [F1] or [F2] (natural protein, Arabidopsis thaliana, UniProt Q9ZVI7 1-619, looked up)
chain: MKGGGGGGGGGGGGKRRWKVLVIGVLVLVILSMLVPLAFLLGLHNGFHSPGFVTVQPASSFESFTRINATKHTQRDVSERVDEVLQKINPVLPKKSDINVGSRDVNATSGTDSKKRGLPVSPTVVANPSPANKTKSEASYTGVQRKIVSGDETWRTCEVKYGSYCLWREENKEPMKDAKVKQMKDQLFVARAYYPSIAKMPSQSKLTRDMKQNIQEFERILSESSQDADLPPQVDKKLQKMEAVIAKAKSFPVDCNNVDKKLRQILDLTEDEASFHMKQSVFLYQLAVQTMPKSLHCLSMRLTVEHFKSDSLEDPISEKFSDPSLLHFVIISDNILASSVVINSTVVHARDSKNFVFHVLTDEQNYFAMKQWFIRNPCKQSTVQVLNIEKLELDDSDMKLSLSAEFRVSFPSGDLLASQQNRTHYLSLFSQSHYLLPKLFDKLEKVVILDDDVVVQRDLSPLWDLDMEGKVNGAVKSCTVRLGQLRSLKRGNFDTNACLWMSGLNVVDLARWRALGVSETYQKYYKEMSSGDESSEAIALQASLLTFQDQVYALDDKWALSGLGYDYYINAQAIKNAAILHYNGNMKPWLELGIPNYKNYWRRHLSREDRFLSDCNVNP
notes: Made in two forms, one with [F1]-HA and one with [F2]-FLAG; a chain carries one of the two; also called GAUT7-[F1]; GAUT7-[F2]; source: N. benthamiana leaves, transient expression (A. tumefaciens GV3101, with p19), in crude leaf macerate; not shown: hRluc[F1]; (Renilla luciferase residues 1-110) with HA, C-terminal, kept; hRluc[F2]; (Renilla luciferase residues 111-310) with FLAG, C-terminal, kept
no binding: [1] | [2] | [3]

B2: CELLULOSE-SYNTHASE LIKE C4 (CSLC4) fused to TF–Cub or NubG (split-ubiquitin assay) (protein, UniProt Q9LJP4 1-673)
chain: MAPNSVAVTMEKPDNFSLLEINGSDPSSFPDKRKSISPKQFSWFLLLKAHRLISCLSWLVSSVKKRIAFSAKNINEEEDPKSRGKQMYRFIKACLVISIIALSIEIVAHFKKWNLDLINRPSWEVYGLVEWSYMAWLSFRSDYIAPLVISLSRFCTVLFLIQSLDRLVLCLGCFWIKFKKIEPKLTEESIDLEDPSSFPMVLIQIPMCNEREVYEQSIGAASQLDWPKDRILIQVLDDSDDPNLQLLIKEEVSVWAEKGVNIIYRHRLIRTGYKAGNLKSAMTCDYVKDYEFVTIFDADFTPNPDFLKKTVPHFKGNPELGLVQARWSFVNKDENLLTRLQNINLCFHFEVEQQVNGVFLNFFGFNGTAGVWRIKALEESGGWLERTTVEDMDIAVRAHLNGWKFIYLNDVEVTCELPESYEAYKKQQHRWHSGPMQLFRLCLPSIIKSKISVWKKANLIFLFFLLRKLILPFYSFTLFCIILPLTMFIPEAELPLWIICYVPIFISLLNILPSPKSFPFLVPYLLFENTMSITKFNAMISGLFQFGSAYEWVVTKKTGRSSESDLLAFAEKEEKLHRRNSESGLELLSKLKEQETNLVGQETVKKSLGGLMRPKNKKKTNMVFKKELGLAFLLLTAAARSFLSAHGLHFYFLLFQGLSFLVVGLDLIGEQIS
no binding: [4] | [5] | [6]
